Measurements as given in patent US10858425B2, “Pan-ELR+ CXC chemokine antibodies” (Eli Lilly and Company, priority 2013, dated 2020).

Assays:
[1] = biological target: T1, human CXCL8 point mutant A35P (Homo sapiens, UniProt P10145, A62P); test: U937-huCXCR2 FLIPR neutralization of human CXCL8 A35P; assay type: cell-based; conditions: human CXCL8 A35P 8 nM
T1 construct: His-SUMO (N, cleaved yes); made in house; host or cells: E. coli
T1 sequence (P10145 28-99 A62P): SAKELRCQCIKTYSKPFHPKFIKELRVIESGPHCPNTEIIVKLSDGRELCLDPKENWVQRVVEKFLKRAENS
Description: Wild type and mutant human CXCL8 are tested for biologic activity and for neutralization by Antibody 1 using the U937-huCXCR2 assay. U937-huCXCR2 is a monocytic cell line transduced with retrovirus for expression of human CXCR2. A description of the U937-huCXCR2 assay is found below under Neutralizing Assays.
Antibody 1 is serially diluted in Assay Buffer containing 0.2% BSA. Antibody concentrations are 3 times the final assay concentration (final concentrations range from 10 to 0.0195 μg/ml). Stock solutions of wild type human CXCL8 and CXCL8 mutants are prepared in Assay Buffer+0.2% BSA at 240 nM (30× the final assay concentration of 8 nM). 20 μL of ligand is mixed with 180 μL of Antibody 1 in wells of v-bottom 96-well polypropylene plates. Ligand and antibody are incubated at room temperature for 30 minutes. A cell plate and a ligand-antibody plate are loaded into a Fluorescent Imaging £late Reader (FLIPR-3, Molecular Devices) programmed to transfer 50 μL of ligand-antibody to wells of the cell plate. Fluorescence is recorded at 1 second intervals for 90 seconds. The change in fluorescence (DRFU) is calculated from images 10 to 90. DRFU versus log (antibody concentration) is plotted and IC50 values are determined by nonlinear regression using Graph Pad Prism. Assays are performed in triplicate over three assay plates.

human CXCL7 = biological target: T2, human CXCL7 (Homo sapiens, UniProt P02775); test: FLIPR neutralization using HMEC cells expressing human CXCR2, CXCL7; assay type: cell-based; conditions: CXCL7 10 nM; HMEC-huCXCR2 FLIPR
T2 sequence (P02775 59-128 limits assumed): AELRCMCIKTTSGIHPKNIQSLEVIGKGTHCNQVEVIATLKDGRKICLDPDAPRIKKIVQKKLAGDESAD
Excerpt: Since all of the ELR+ CXC chemokines can bind CXCR2 receptor, cells expressing CXCR2 were selected for in vitro studies. HMEC-huCXCR2 is an immortalized human endothelial cell line transduced with retrovirus for expression of human CXCR2 receptor. HMEC cells expressing human CXCR2 are able to induce intracellular Ca^2+ influx in response to human, cynomolgus monkey, rat, and mouse ELR+CXC chemokines. Intracellular Ca^2+ influx can be detected by a Fluorescent Imagine £late Reader (FLIPR). Chemokine neutralization should therefore also neutralize intracellular Ca^2+ influx induced by these chemokines.
HMEC-huCXCR2 is maintained in MCDB 31 medium supplemented with 10% fetal bovine serum, 2× GlutaMax, 1× non-essential amino acids, 1 μg/mL hydrocortisone, 10 ng/mL human Epidermal Growth Factor, and 0.4 μg/mL puromycin at 37° C. in 5% CO2. […] A cell plate and a ligand-antibody plate are loaded into a Fluorescent Imagine Plate Reader (FLIPR-3, Molecular Devices) programmed to transfer 50 μL of ligand-antibody to wells of the cell plate. Fluorescence is recorded every second for 90 seconds. The change in fluorescence (DRFU) is calculated from images 10 to 90. DRFU versus log (antibody concentration) is plotted and IC50 values are determined by nonlinear regression using Graph Pad Prism. […] Data are expressed as the mean of replicates. […]

[2] = Acute DSS colitis model in mice, body weight; assay type: in vivo, C57BL/6 mice
Description: Dextran sulfate sodium (DSS) is the most commonly used model of Ulcerative Colitis (UC). In this model, DSS is a chemical irritant that is added to drinking water to induce acute disease that resembles UC. The acute phase of DSS colitis is characterized by the recruitment of neutrophils to the mucosa and submucosa, and increased expression of ELR+ CXC chemokines. However, chronic exposure to DSS causes severe gut damage and significant weight loss, which is not suitable in a colitis model. To accommodate the acute nature of this model, Antibody 1 was used in a prophylactic manner to test its ability to inhibit the recruitment of neutrophils and the development of colitis.
C57BL/6 mice, 8-10 wks old, weighing 18-22 g, are obtained. Blood is collected by cardiac puncture and analyzed to establish a baseline. To induce colitis, mice receive 2.5% DSS (MW=36,000-50,000) in the drinking water for 5 days (Days 1-5) followed by 6 days of no DSS water (reflecting acute inflammation). Control healthy mice receive water only (“no DSS” group). Mice receiving DSS are dosed by subcutaneous injection on Day 0, 2, 4, and 8 with human IgG4 control antibody (25 mg/kg) or Antibody 1 (25 mg/kg). Body weight is recorded daily. The number of mice used for each treatment is 9 (except 5 healthy mice are used in the healthy “no DSS” group.) The study is performed in quadruplicate.

B1: Antibody 1: antibody with heavy chain SEQ ID NO: 1 and light chain SEQ ID NO: 3, expressed in NSO cells (antibody)
heavy: QVQLVQSGAEVKKPGASVKVSCKASGYEFTSYWIHWVRQAPGQGLEWMGNISPNSGSANYNEKFKSRVTMTRDTSTSTVYMELSSLRSEDTAVYYCAREGPYSYYPSREYYGSDLWGQGTLVTVSSASTKGPSVFPLAPCSRSTSESTAALGCLVKDYFPEPVTVSWNSGALTSGVHTFPAVLQSSGLYSLSSVVTVPSSSLGTKTYTCNVDHKPSNTKVDKRV[human IgG4 Fc with S228P (EU numbers) not spelt out]
light: EIVLTQSPATLSLSPGERATLSCRASQSISNNLHWYQQKPGQAPRLLIYYTSRSVSGIPARFSGSGSGTDFTLTISSLEPEDFAVYYCGQNNEWPEVFGGGTKVEIKRTVAAPSVFIFPPSDEQLKSGTASVVCLLNNFYPREAKVQWKVDNALQSGNSQESVTEQDSKDSTYSLSSTLTLSKADYEKHKVYACEVTHQGLSSPVTKSFNRGEC
U937 FLIPR neutralization IC50 [1]: No neutralization | IC50 (human CXCL7): 1.068 (±0.324) ug/mL | % of Initial Body Weight ([2]; Day 1, 25 mg/kg subcutaneous): 100.0% | % of Initial Body Weight ([2]; Day 2, 25 mg/kg subcutaneous): 102.9% | % of Initial Body Weight ([2]; Day 3, 25 mg/kg subcutaneous): 101.4% | % of Initial Body Weight ([2]; Day 4, 25 mg/kg subcutaneous): 100.9% | % of Initial Body Weight ([2]; Day 5, 25 mg/kg subcutaneous): 96.9% | % of Initial Body Weight ([2]; Day 9, 25 mg/kg subcutaneous): 93.5% | % of Initial Body Weight ([2]; Day 10, 25 mg/kg subcutaneous): 93.6% | % of Initial Body Weight ([2]; Day 11, 25 mg/kg subcutaneous): 97.0%
